Source: paper PMC9911399, “Two distinct binding modes provide the RNA-binding protein RbFox with extraordinary sequence specificity”
Changes are numbered by the printed parent chain; changes in the protein carry UniProt numbers. The list shows a part of the results.

T1: RBFOX1 RRM (Homo sapiens, UniProt Q9NWB1 109-208)
T1 sequence: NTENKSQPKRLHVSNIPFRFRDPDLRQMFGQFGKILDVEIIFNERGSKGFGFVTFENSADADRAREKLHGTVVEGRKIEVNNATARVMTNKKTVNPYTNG

B1: CCAUUGA (DNA:RNA)
RNA: GGGAGACCGGAAUUCAGAUUGUCCCCAUUGAUUAAAUCCCGUCGUAGCCACCA
DNA 1: CAATCTGAATTCCGGTCTCCC
DNA 2: TGGTGGCTACGACGGGATT
B2: AAGUAAA (DNA:RNA)
RNA: B1 RNA with C25A, C26A, A27G, U29A, G30A
DNA 1: CAATCTGAATTCCGGTCTCCC
DNA 2: TGGTGGCTACGACGGGATT
B3: UAUGUUU (DNA:RNA)
RNA: B1 RNA with C25U, C26A, A27U, U28G, G30U, A31U
DNA 1: CAATCTGAATTCCGGTCTCCC
DNA 2: TGGTGGCTACGACGGGATT
B4: UUAGGAG (DNA:RNA)
RNA: B1 RNA with C25U, C26U, U28G, U29G, G30A, A31G
DNA 1: CAATCTGAATTCCGGTCTCCC
DNA 2: TGGTGGCTACGACGGGATT
B5: UUCAAUU (DNA:RNA)
RNA: GGGAGACCGGAAUUCAGAUUGUCCUUCAAUUUUAAAUCCCGUCGUAGCCACCA
DNA 1: CAATCTGAATTCCGGTCTCCC
DNA 2: TGGTGGCTACGACGGGATT
B6: UAGCUUA (DNA:RNA)
RNA: B1 RNA with C25U, C26A, A27G, U28C, G30U
DNA 1: CAATCTGAATTCCGGTCTCCC
DNA 2: TGGTGGCTACGACGGGATT
B7: GAUCACG (DNA:RNA)
RNA: B5 RNA with U25G, U26A, C27U, A28C, U30C, U31G
DNA 1: CAATCTGAATTCCGGTCTCCC
DNA 2: TGGTGGCTACGACGGGATT
B8: CCAAUGC (DNA:RNA)
RNA: B1 RNA with U28A, A31C
DNA 1: CAATCTGAATTCCGGTCTCCC
DNA 2: TGGTGGCTACGACGGGATT
B9: UUUUGGC (DNA:RNA)
RNA: B1 RNA with C25U, C26U, A27U, U29G, A31C
DNA 1: CAATCTGAATTCCGGTCTCCC
DNA 2: TGGTGGCTACGACGGGATT
B10: GGUUCGC (DNA:RNA)
RNA: B1 RNA with C25G, C26G, A27U, U29C, A31C
DNA 1: CAATCTGAATTCCGGTCTCCC
DNA 2: TGGTGGCTACGACGGGATT
B11: ACUGUGG (DNA:RNA)
RNA: B1 RNA with C25A, A27U, U28G, A31G
DNA 1: CAATCTGAATTCCGGTCTCCC
DNA 2: TGGTGGCTACGACGGGATT
B12: GCGUGUA (DNA:RNA)
RNA: B1 RNA with C25G, A27G, U29G, G30U
DNA 1: CAATCTGAATTCCGGTCTCCC
DNA 2: TGGTGGCTACGACGGGATT
B13: UUCGCAA (DNA:RNA)
RNA: B5 RNA with A28G, A29C, U30A, U31A
DNA 1: CAATCTGAATTCCGGTCTCCC
DNA 2: TGGTGGCTACGACGGGATT
B14: UGUUGCU (DNA:RNA)
RNA: B5 RNA with U26G, C27U, A28U, A29G, U30C
DNA 1: CAATCTGAATTCCGGTCTCCC
DNA 2: TGGTGGCTACGACGGGATT
B15: UCCCGUA (DNA:RNA)
RNA: B5 RNA with U26C, A28C, A29G, U31A
DNA 1: CAATCTGAATTCCGGTCTCCC
DNA 2: TGGTGGCTACGACGGGATT
B16: CUUGAAU (DNA:RNA)
RNA: B5 RNA with U25C, C27U, A28G, U30A
DNA 1: CAATCTGAATTCCGGTCTCCC
DNA 2: TGGTGGCTACGACGGGATT
B17: AGCUACC (DNA:RNA)
RNA: B5 RNA with U25A, U26G, A28U, U30C, U31C
DNA 1: CAATCTGAATTCCGGTCTCCC
DNA 2: TGGTGGCTACGACGGGATT
B18: GUUUAUG (DNA:RNA)
RNA: B5 RNA with U25G, C27U, A28U, U31G
DNA 1: CAATCTGAATTCCGGTCTCCC
DNA 2: TGGTGGCTACGACGGGATT
B19: AUUGAAA (DNA:RNA)
RNA: B5 RNA with U25A, C27U, A28G, U30A, U31A
DNA 1: CAATCTGAATTCCGGTCTCCC
DNA 2: TGGTGGCTACGACGGGATT
B20: AUAAAUC (DNA:RNA)
RNA: B5 RNA with U25A, C27A, U31C
DNA 1: CAATCTGAATTCCGGTCTCCC
DNA 2: TGGTGGCTACGACGGGATT

What follows are binders tested against T1, RBFOX1 RRM (assay: EMSA; HiTS-Eq, 1 nM pool, 10 min; buffer printed only for the single-RNA assays: 10 mM Tris pH 7.5, 150 mM NaCl, 3.4 mM EDTA, 0.001% NP-40, 30 C). Settings: tags: His6 N-terminal (pET28a); label: 5' 32P.
How it was run: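 Relative association constants, normalised to the cognate motif, were derived by comparing read counts of each RNA species with those of the control reaction. The RNA sequenced was the free fraction, separated by 8% native PAGE after a 10 min equilibration in 50 µL of 1 nM 5′-radiolabelled RNA (7 randomized nucleotides) with increasing concentrations of purified wild-type or mutant RbFox RRM.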
B1 was tested, and the binding signal was 0.00494 KA relative to UGCAUGU.
B2 was tested, and the binding signal was 0.00115 KA relative to UGCAUGU.
For B3, the binding signal was 0.0156 KA relative to UGCAUGU.
B4 was tested, and the binding signal was 0.00364 KA relative to UGCAUGU.
With B5 the binding signal was 0.00386 KA relative to UGCAUGU.
In the case of B6, the binding signal is reported as 0.00914 KA relative to UGCAUGU.
B7 was tested, and the binding signal was 0.00958 KA relative to UGCAUGU.
With B8 the binding signal was 0.00439 KA relative to UGCAUGU.
In the case of B9, the binding signal is reported as 0.0137 KA relative to UGCAUGU.
With B10 the binding signal was 0.0222 KA relative to UGCAUGU.
B11 was tested, and the binding signal was 0.0129 KA relative to UGCAUGU.
B12 was tested, and the binding signal was 0.017 KA relative to UGCAUGU.
In the case of B13, the binding signal is reported as 0.00695 KA relative to UGCAUGU.
In the case of B14, the binding signal is reported as 0.0219 KA relative to UGCAUGU.
With B15 the binding signal was 0.00196 KA relative to UGCAUGU.
For B16, the binding signal was 0.0126 KA relative to UGCAUGU.
With B17 the binding signal was 0.00988 KA relative to UGCAUGU.
For B18, the binding signal was 0.0118 KA relative to UGCAUGU.
For B19, the binding signal was 0.00387 KA relative to UGCAUGU.
B20 was tested, and the binding signal was 0.000191 KA relative to UGCAUGU.
